Among all 310,000 compounds or so, about 2,200 (0.71%) showed an effect of 50% or more. The effect is printed as a negative number. The list shows a part of the results.

The target in the test is human ether-à-go-go-related gene (hERG) potassium channel (human, UniProt Q12809). Description: primary screen, population patch clamp on CHO cells stably expressing hERG.
Chain of human ether-à-go-go-related gene (hERG) potassium channel (Q12809 whole entry, looked up): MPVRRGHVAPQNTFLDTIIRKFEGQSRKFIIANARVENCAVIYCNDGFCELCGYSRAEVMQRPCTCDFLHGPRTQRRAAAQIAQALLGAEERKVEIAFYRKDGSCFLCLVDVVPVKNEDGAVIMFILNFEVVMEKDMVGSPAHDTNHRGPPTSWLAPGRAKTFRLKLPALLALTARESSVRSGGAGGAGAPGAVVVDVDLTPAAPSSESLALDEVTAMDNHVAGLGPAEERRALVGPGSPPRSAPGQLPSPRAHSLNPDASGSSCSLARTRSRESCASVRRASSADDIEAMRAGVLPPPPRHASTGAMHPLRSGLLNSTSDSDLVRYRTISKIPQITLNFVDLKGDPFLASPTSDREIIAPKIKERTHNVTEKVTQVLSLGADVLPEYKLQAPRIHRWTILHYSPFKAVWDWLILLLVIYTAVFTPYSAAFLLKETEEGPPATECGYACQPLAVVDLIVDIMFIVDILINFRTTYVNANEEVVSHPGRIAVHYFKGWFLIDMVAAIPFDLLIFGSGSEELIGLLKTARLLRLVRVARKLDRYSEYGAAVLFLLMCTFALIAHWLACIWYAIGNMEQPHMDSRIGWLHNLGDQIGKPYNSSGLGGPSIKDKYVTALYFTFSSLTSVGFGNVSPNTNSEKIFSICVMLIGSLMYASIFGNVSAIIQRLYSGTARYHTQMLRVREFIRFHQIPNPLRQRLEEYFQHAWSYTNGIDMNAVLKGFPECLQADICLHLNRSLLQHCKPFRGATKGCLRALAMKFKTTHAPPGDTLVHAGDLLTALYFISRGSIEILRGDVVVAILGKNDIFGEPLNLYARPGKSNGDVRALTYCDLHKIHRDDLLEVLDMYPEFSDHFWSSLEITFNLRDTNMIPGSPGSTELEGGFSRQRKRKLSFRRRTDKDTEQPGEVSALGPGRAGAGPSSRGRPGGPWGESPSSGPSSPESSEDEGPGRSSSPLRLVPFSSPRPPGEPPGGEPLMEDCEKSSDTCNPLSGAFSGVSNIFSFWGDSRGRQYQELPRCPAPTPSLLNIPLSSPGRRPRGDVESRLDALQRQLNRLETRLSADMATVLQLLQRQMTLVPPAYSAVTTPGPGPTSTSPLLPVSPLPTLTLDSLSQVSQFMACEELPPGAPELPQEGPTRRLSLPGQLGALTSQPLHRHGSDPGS
Regarding `COc1cccc(C(=S)N2CCOCC2)c1OS(=O)(=O)c1ccc(Cl)cc1`, the “hERG current change (%, negative = inhibition) at 1uM” value is 8.5%.
For `O=C(Nc1ccc(Cl)cc1)C1=Cc2cc(Cl)ccc2OC1`, the “hERG current change (%, negative = inhibition) at 1uM” value is recorded as 3.76%.
In the case of `CCOC(=O)C1=NN(C(=O)Nc2ccc(OC)cc2)C2C(=O)N(c3cccc(C(F)(F)F)c3)C(=O)C12` (centres unmarked), the “hERG current change (%, negative = inhibition) at 1uM” value was found to be 0.488%.
Next, `Cc1ccc(S(=O)(=O)N2CCC(C(=O)NCCCN3CCCCCC3)CC2)cc1`: -0.0269%; `CCC(C(=O)c1ccc(O)cc1)c1ccccc1` (centres unmarked): 7.46%.
Consider `[Br-].c1ccc(Nc2scc(-c3ccccc3)[n+]2Cc2ccco2)cc1`, for which the “hERG current change (%, negative = inhibition) at 1uM” value is on record as 8.15%.
Next, `COC(=O)CSc1ncc(OC)c(OC)n1`: 4.54%; `COc1ccc(C2=NN(C(=O)CCCC(=O)O)C(c3cn(-c4ccccc4)nc3-c3ccccc3)C2)cc1` (centres unmarked): -3.5%; `Nc1ccc(Br)cc1Br`: 12.3%.
Take `Fc1cnc(N2CCOCC2)nc1NCc1ccccc1`: the “hERG current change (%, negative = inhibition) at 1uM” value is 16.1%.
Next, `CCCCCCCn1c(=O)c(C(=O)Nc2cnccn2)c(O)c2ccccc21`: 12.5%; `CCn1c(CSCc2c(Cl)cccc2Cl)n[nH]c1=S`: 20.4%.
On to `C[n+]1ccc(C(=O)Nc2ccccc2Cl)cc1.[I-]`, for which the “hERG current change (%, negative = inhibition) at 1uM” value worked out at 22.5%.
For `CC(=O)n1nc(-c2cccc(C)c2)nc1SCC(=O)Nc1ccccc1`, the “hERG current change (%, negative = inhibition) at 1uM” value is -4.13%.
Next, `COc1ccc(NC(=O)c2cnc(C)cn2)cc1-n1cnnn1`: 13.3%; `CC(=O)Nc1cccc(NC(=O)C(=O)NCC(c2ccco2)N2CCc3ccccc32)c1` (centres unmarked): 3.12%; `CCC1/C(=N\O)CC(c2ccco2)NC1c1ccco1` (centres unmarked): 11.6%.
The result for `Cc1ccc(N(CC(O)CN2CCCCC2)S(=O)(=O)c2ccc(C)cc2)cc1` (centres unmarked) reads 12.8%.
The result for `CS(=O)(=O)N1CCC(Oc2ccccc2C(=O)NCCCc2cccnc2)CC1` reads 13.7%; that for `CC(=O)Oc1ccc(/C=C(\NC(=O)c2cccc(Br)c2)C(=O)Nc2ccc(C(=O)O)cc2)cc1`, 1.11%; that for `S=C(NCc1ccccc1)NCc1ccc(Cl)cc1`, 13.7%.
In the case of `CCSc1cc(N2CCCC2)nc(-c2ccc(Cl)cc2)n1`, the “hERG current change (%, negative = inhibition) at 1uM” value is recorded as 19.1%.
The result for `COc1ccc(/C=N/NC(=O)c2ccc3c(c2)OCCO3)cc1[N+](=O)[O-]` reads -3.9%; that for `CN(C)c1nc(N)nc(CSc2ccccn2)n1`, 14.8%.
`Cc1ccc(OCc2nnc(SCC(=O)Nc3cccc4ccccc34)n2-c2ccccc2)cc1`: the “hERG current change (%, negative = inhibition) at 1uM” value is reported as 18%.
The result for `CC(=O)c1ccc(Oc2cc(C)nc(NCc3ccccc3)n2)cc1` reads -0.431%; that for `C=C(C)C1Cc2c(C)nn(-c3ccccn3)c2C1` (centres unmarked), 14%.
Next, `O=[N+]([O-])c1ccccc1S(=O)(=O)Nc1cccc2cccnc12`: 2.85%.
Next, `CC(C)[C@H](NC(=O)N1CCn2c1nc1ccccc12)C(=O)NCc1ccc(F)cc1`: 7.56%; `Cc1cc2c(cc1S(=O)(=O)Nc1cccc(F)c1)n(C)c(=O)c(=O)n2C`: -2.35%; `Nc1ccc(-c2nc3cc(N)ccc3o2)cc1`: 10.5%.
Take `Cc1ccc(C(=O)N(C)CCOc2ccccc2)cc1S(=O)(=O)N1CCCCC1`: the “hERG current change (%, negative = inhibition) at 1uM” value is -1.43%.
As to `CC(C)CNc1nc(Oc2ccc(=O)n(-c3ccccc3)n2)nc(N2CCOCC2)n1`, the “hERG current change (%, negative = inhibition) at 1uM” value stood at 8.69%.
Next, `O=C(CNC(=O)c1ccccc1)N/N=C/c1cn[nH]c1-c1ccccc1`: 13.1%; `COC(=O)c1c[nH]c(=O)c2ccccc12`: 22.6%; `CC(=O)N1CCN(c2ccc(NC(=O)c3ccc([N+](=O)[O-])cc3)cc2)CC1`: 8.21%.
Next, `CCOc1ccc(-c2c[n+](=O)c3c(n2[O-])CCCC3)c(OCC)c1`: 2.6%; `O=C(CSc1ncn[nH]1)NCc1ccccc1Cl`: 13.5%; `CCS(=O)(=O)N1CCC(C(=O)O)CC1`: 16.8%.
Turning to `O=C(O)c1ccccc1Nc1cccc(OCc2ccc3ccccc3n2)c1`, the “hERG current change (%, negative = inhibition) at 1uM” value is on record as 16.5%.
Next, `CC(C)COP(=O)(OCC(C)C)C(O)c1ccc2c(c1)OCO2` (centres unmarked): 11.2%.
Next, `CC1Sc2ccc(S(=O)(=O)N3CCN(c4ccccc4)CC3)cc2NC1=O` (centres unmarked): 6.41%; `COc1ccc(CN2CCC(=O)N([C@H](CO)Cc3ccccc3)CC2)cc1`: 1.95%.
Next, `COCCOc1cc(N(CC(=O)N(C)C)S(=O)(=O)c2ccccc2)c(Cl)cc1Cl`: 10.8%; `Cc1ccc(/C=N/N2CCN(Cc3ccccc3)CC2)cc1`: 11%.
Regarding `CCOc1ccc(S(=O)(=O)N2CCC(C(=O)NCc3ccco3)CC2)cc1`, the “hERG current change (%, negative = inhibition) at 1uM” value is -14.5%.
The result for `COC(=O)C(Nc1ccccc1Cl)(c1cc(C)c(O)c(C)c1)C(F)(F)F` (centres unmarked) reads 4.38%; that for `CC(C)c1nnc(NC(=O)CCC(=O)Nc2ccc(Cl)cc2)s1`, 19.5%.
The result for `COc1ccc(-c2c(NC(=O)c3ccco3)n(-c3ccc(C)cc3)nc(C)c2=O)cc1` reads 18.6%; that for `CC(C)Cn1c(N)c(/C=N/NC(=O)c2ccc(Cl)cc2)c(=O)n(C)c1=O`, 18.2%.
With `CCOCCc1nnc(NC(=O)c2cc(OC)c(OC)cc2[N+](=O)[O-])s1`, the “hERG current change (%, negative = inhibition) at 1uM” value is given as 6%.
For `Cc1ccc(NC(=O)CN(C)C(=O)C(c2ccccc2)c2ccccc2)cc1`, the “hERG current change (%, negative = inhibition) at 1uM” value is recorded as 7.27%.
In the case of `CCCOP(=O)(c1ccc(N(C)C)cc1)C(O)c1ccc(N(C)C)cc1` (centres unmarked), the “hERG current change (%, negative = inhibition) at 1uM” value is listed as 14.6%.
For `c1ccc(CCNCCOc2ccccc2)cc1`, the “hERG current change (%, negative = inhibition) at 1uM” value was determined as 8.5%.
Next, `CC(/C=N/n1c(-c2ccncc2)n[nH]c1=S)=C\c1ccco1`: 20.7%.
The result for `CCOC(=O)c1c(C)sc(Sc2ccc(Cl)cc2[N+](=O)[O-])c1OC` reads 10.2%; that for `CCCC(CCC(=O)NC1CCCCC1)C(=O)O` (centres unmarked), 10.7%; that for `N#Cc1c(SCC(=O)Nc2ccc(C(F)(F)F)cc2)sc2c(O)cc(=O)[nH]c12`, 14.8%.
Turning to `CC(C)(C)c1ccc(C(CC(=O)O)NC(=O)C23CC4CC(CC(C4)C2)C3)cc1` (centres unmarked), the “hERG current change (%, negative = inhibition) at 1uM” value is on record as 14.5%.
Next, `Cc1nn(C)c(C)c1S(=O)(=O)N1CCCC(C(=O)NC2CCCCC2)C1` (centres unmarked): 7.91%.
Regarding `CS(=O)(=O)Nc1nnc(CCc2ccccc2)s1`, the “hERG current change (%, negative = inhibition) at 1uM” value came out at 16.8%.
Next, `CC1C(=O)CC(c2ccccc2)NC1c1ccccc1` (centres unmarked): 3.38%; `CC(C)N(C)NC(=S)Nc1ccccc1`: 8.22%; `O=C(C1=C[C@@H](c2ccc3c(c2)OCO3)C[C@@H](OCc2ccc(CO)cc2)O1)N1CCOCC1`: 7.02%.
Next, `Cc1c(Cl)cccc1NC(=O)CCCCCN1C(=O)CCC1=O`: 12.8%.
The result for `O=C(O)COc1ccccc1/C=N/NC(=O)CN1CCN(S(=O)(=O)c2ccc(Br)cc2)CC1` reads 8.52%; that for `COc1cccc(NC(=O)COC(=O)C2CCN(S(=O)(=O)c3cccs3)CC2)c1`, 12.8%; that for `Cc1cccc(NC(=O)C2CCCN(S(=O)(=O)c3ccc4[nH]c(=O)ccc4c3)C2)n1` (centres unmarked), 5.81%.
For `COCCN1CCN(Cc2cn(C)nc2-c2cccc(Cl)c2)CC1`, the “hERG current change (%, negative = inhibition) at 1uM” value was determined as 7.46%.
Next, `CCn1c(C2CC(=O)N(Cc3ccccc3)C2)nc2ccccc21` (centres unmarked): 5.22%; `CN(C)C=O.COc1ccccc1CNC(=O)COC(=O)c1ccc(NC(N)=O)cc1`: 14.8%.
As to `C=CCN(CC=C)C(=O)CCc1nnc(CCc2c[nH]c3ccccc23)o1`, the “hERG current change (%, negative = inhibition) at 1uM” value came out at 11.7%.
The result for `COc1ccc(N(CC2CO2)S(=O)(=O)c2ccccc2)cc1` (centres unmarked) reads 14.5%; that for `CC(C)[C@@]1(c2ccccc2)ON(c2ccccc2C(F)(F)F)C1=O`, -3.67%; that for `CN1CCN(S(=O)(=O)c2ccc(NC(=S)NC(=O)C3CC3)cc2)CC1`, 0.304%.
With `CCc1ccc(NC(=O)CS(=O)CC(=O)NCCCc2ccccc2)cc1` (centres unmarked), the “hERG current change (%, negative = inhibition) at 1uM” value was found to be 9.79%.
With `Cc1cc(Br)cc(Br)c1OCC(=O)NNC(=O)c1ccoc1C`, the “hERG current change (%, negative = inhibition) at 1uM” value is recorded as 13.8%.
Next, `O=C(N/N=C/c1ccc2c(c1)OCO2)c1ccc2c(c1)OCCO2`: 12.8%.
`OC(COC(c1ccc(F)cc1)c1ccc(F)cc1)CN1CCc2ccccc2C1` (centres unmarked): the “hERG current change (%, negative = inhibition) at 1uM” value is -9.74%.
The result for `CC(=O)Nc1c(C(=O)O)[nH]c2ccccc12` reads 18.5%.
In the case of `CC(C)(C)OC(=O)NCC(=O)N1CCC(C(=O)O)CC1`, the “hERG current change (%, negative = inhibition) at 1uM” value is 11.8%.
In the case of `COC(=O)c1ccc(C(C(=O)NC2CCCCC2)N(CCc2ccccc2)C(=O)Cc2cccs2)cc1` (centres unmarked), the “hERG current change (%, negative = inhibition) at 1uM” value turned out to be 12.5%.
The result for `CC(C)(C)C(=O)Nc1nc2c(s1)CN(Cc1ccccc1)CC2` reads 12.3%.
The result for `COc1ccccc1NC(=O)Cn1cnc2sc(C(=O)Nc3cc(OC)c(OC)c(OC)c3)c(C)c2c1=O` reads 30%; that for `Cc1ccc(Cn2c(C(CO)Nc3nc(-c4ccc(F)cc4)cs3)nc3ccccc32)cc1` (centres unmarked), 20.1%.
In the case of `Cc1ccc2c(c1)C1CN(C)CCC1N2C(=O)c1ccccc1NS(=O)(=O)c1ccc(F)cc1C.Cl` (centres unmarked), the “hERG current change (%, negative = inhibition) at 1uM” value came out at 6.21%.
`CN(C)/C=C/C(=O)c1ccc2noc(-c3ccc(F)cc3)c2c1`: the “hERG current change (%, negative = inhibition) at 1uM” value was 13.5%.
Consider `CCOC(=O)c1cccc(P(=O)(C(C)(C)C)C(C)(C)C)c1`, for which the “hERG current change (%, negative = inhibition) at 1uM” value came to 14.4%.
In the case of `COc1ccc(Cl)cc1NC(=O)CN(C)CC(=O)Nc1cc(OC)c(OC)c(OC)c1`, the “hERG current change (%, negative = inhibition) at 1uM” value is given as 8.22%.
